pIC50: −log10 of the molar value.
Biological target: Recombinant human cathepsin S (CatS) (Homo sapiens, UniProt P25774)
Test: biochemical

## CS(=O)(=O)N1CCc2c(c(-c3ccc(C(F)(F)F)cc3)nn2CC(O)CN2CCC(c3c[nH]c4cc(N5CCOCC5)ncc34)CC2)C1 (stereo not shown) [Example 9, 1-[5-Methanesulfonyl-3-(4-trifluoromethyl-phenyl)-4,5,6,7-tetrahydro-pyrazolo[4,3-c]pyridin-1-yl]-3-[4-(6-morpholin-4-yl-1H-pyrrolo[3,2-c]pyridin-3-yl)-piperidin-1-yl]-propan-2-ol]
  pIC50: 7.70
